# Measured values as given in the supplement of paper PMC11417369.
# The list shows a part of the results.
# System: PfAP2-HC AP2 domain (GST-tagged)
# Assay: gcPBM binding intensity (ln(normalized median fluorescence intensity)); higher = stronger DNA binding
# Outline: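 In this array assay, P. falciparum DNA-binding domains with a GST tag, expressed in E. coli, were applied for 1 h to primer-extended double-stranded 36-bp intergenic genomic probes and negative controls on an Agilent 4 × 180k array. Bound protein was visualised with Alexa488 anti-GST antibody at 488 nm. Binding intensity is the highest Masliner-normalised natural-log median intensity across replicate spots of either probe orientation.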
row,Sequence,gcPBM binding intensity (ln)
1,AAAAAAAAAAATATCACACACACATAAATATAAACC [CACACA_site2278],10.4
2,AAATTATATCAATGTTGTACATATTATTTTTTTCTC [XGTACX_site5948],9.63
3,TTTTTTCAATTTTTTTTAAATAAACCACAAAAAAAA [CACACA_negctrl_site1701],9.05
4,TAATGTAAAATTTAGAGTACATAAAAAATTGGATGA [XGTACX_site7225],9.67
5,AAATAAAAAAAGAAACGTACATATATTGGTTTCGTC [XGTACX_site3510],9.71
6,AAACTATAATATATTACACACATATATTTTATAAGT [CACACA_site6460],9.85
7,GGAATAGTAATATATACACACAAATACAGATATATA [CACACA_site4213],10.3
8,AATTGAATTTTAAAAGAAAAAAAAAAAAAAAAATAA [XGTACX_negctrl_site195],9.33
9,TGGAGGTCAGTTCACAGTACCCAGAAACTCTACGGA [XGTACX_site4927],9.3
10,CATACAGATATATATACACACATACAGATAAATACA [CACACA_site4592],9.95
11,AACATACATAAACACACACACACACCCACAGAGACA [CACACA_site4430],11
12,CTTATAAAAAAAAAAACATGCAACAGTAAAGAACAA [TGCATGCA_site892],9.7
13,AAAAAAATAAGTATTGAACAATTAAGGAAAAACATG [GTGCAC_negctrl_site464],9.76
14,GGTAATTTTTTTTAAATACACACTGAAATGTGAATT [CACACA_site564],9.52
15,CTTGTCATTGGGCACACACACATGTATAGGTTATTA [CACACA_site3058],10.1
16,GAGTAAACATATATATGTACATAAAGTTAACATTGC [XGTACX_site2225],9.99
17,ATTTTTTTTCATATAACACACACACTAATATAATGT [CACACA_site9226],10.4
18,TGAACACCCACAAATACACACAAAAAAAATAAATAA [CACACA_site248],10.6
19,ATATATTATATAATATGTACATAATAAAATTTAAAT [XGTACX_site1900],9.67
20,ATCTAAATAATATATATATATAATATTAATAATATA [CACACA_negctrl_site1620],9.49
21,TTTTTATTTATATATATATATATATATTATATATAA [CACACA_negctrl_site1654],9.52
22,ACAAGATCTAGATACACACACATATCTCTCAATCTA [CACACA_site6453],9.93

row,Sequence,gcPBM binding intensity (ln)
1,AATAATTGAAAAACACAAAAATGATTTTCCATAAAT [CACACA_negctrl_site1555],9.55
2,GGGACAGGACGAAAAAATAAATAAATAAATAAAAAA [CACACA_negctrl_site155],9.4
3,GTAAAAAAATAGCACACACACAAAAACACGCACAAA [CACACA_site6723],11.4
4,AATAAATAAATATATACACACATATCTGTCTACATA [CACACA_site5708],9.9
5,TTATTTTTTTTATATATATGTATAAATATATATATA [XGTACX_negctrl_site441],9.6
6,ATATTTATATGGTTTGCACACATAACAACTATGGTT [CACACA_site3631],10
7,ATATAACATATCAATTGTACGTATTGATAATATATA [XGTACX_site2504],9.63
8,TTTTGTTTTAATTTTATTTGATTTTATTTGATTTAT [CACACA_negctrl_site692],9.67
9,AGGCACACAAACATATGTACACATATATATATATAT [XGTACX_site4723],9.91
10,TTTATTGAACGTACACATATATATATGTATATATTT [TGCATGCA_negctrl_site141],9.7
11,CAAAAGGATATGCACACACACACACGGATATTTATA [CACACA_site7099],11.4
12,TTTTGTTATTAGAGGGTGCTTATAATGAACTCCTAC,9.55
13,GACAAAATGATAGGGACACACAATATCAATGTTTAA [CACACA_site765],9.81
14,TCAATCATCTTATATAGTACACATAAAAGTATTATA [XGTACX_site8513],9.44
15,AAAAAAAAAAATCCAGTGCATATATTTTTTACATAT,9.66
16,ATTACATTAATAAGAGTGCATTATATAAGTTTTATG,9.6
17,CCACTAATAAATATTACACACATATAGATTTATATT [CACACA_site7465],9.76
18,AAAAAAAAAAATTACACACATACATATAATAATAAT [CACACA_site2193],10.2
19,CGTATATATATATACACACACATATATATATGTAAA [CACACA_site195],10.1
20,AAAAACTTAATATTCACACATATATATATATATATA [CACACA_site5240],9.6
21,TACGTTCTAATATATACACACCTGGTATTAATTATG [CACACA_site5260],9.89
22,GAAAAATTTTTATATGTGCACATGTTATATATAATT [GTGCAC_site9742],9.81
